# Experimental data taken from PubChem BioAssay AID485294 (National Center for Advancing Translational Sciences (NCATS), 2010).
# About 150 (0.041%) of roughly 370,000 compounds were called active. The shares of active, inactive and inconclusive entries below differ from those in the screen. Calls follow the shape of the dose curve; as a rule, active = well fitted inhibition curve with a large enough effect; inconclusive = small, poorly fitted or top-dose-only effect; inactive = flat fitted curve, though single readings scatter. No potency is given beside an inconclusive call; the fits are too rough.
# Biological target: Beta-lactamase (Escherichia coli (strain K12)) (UniProt P00811)
# UniProt P00811, sequence (P00811 whole entry, looked up): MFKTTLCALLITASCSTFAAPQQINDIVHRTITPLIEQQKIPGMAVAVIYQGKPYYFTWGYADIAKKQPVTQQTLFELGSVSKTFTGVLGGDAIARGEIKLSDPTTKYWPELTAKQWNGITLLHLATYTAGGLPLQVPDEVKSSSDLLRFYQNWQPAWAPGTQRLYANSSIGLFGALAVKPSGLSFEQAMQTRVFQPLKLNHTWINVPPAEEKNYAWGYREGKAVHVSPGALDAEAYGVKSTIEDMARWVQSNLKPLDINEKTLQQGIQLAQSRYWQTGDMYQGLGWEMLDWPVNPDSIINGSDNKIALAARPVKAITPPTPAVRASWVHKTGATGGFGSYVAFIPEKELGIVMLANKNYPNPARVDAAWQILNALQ
# Experiment: qHTS Inhibitors of AmpC Beta-Lactamase (assay with detergent); also: nearly all actives have a fitted effect of over 25% in size;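 as to activity change, negative = inhibition: 0% = no-compound wells and -100% = no-enzyme wells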
# Details: AmpC hydrolysis of nitrocefin, absorbance 480 nm, 0.01% Triton; activity change, negative = inhibition: at 114 µM (top of the series)
# Outline: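 AmpC (5.3 nM in the dispensed reagent) in 20 mM phosphate pH 7.0 with 0.01% (detergent screen) or 0.0001% Triton X-100 was preincubated with compounds for 15 min at room temperature. Nitrocefin was then added from an 800 uM solution, and hydrolysis was followed at 480 nm.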
# Potency is read from the fitted curve at half-maximal effect; tags tell the direction and shape of the fitted curve.
SMILES,Potency,"activity change, negative = inhibition"
COc1ccc(S(=O)(=O)NCc2cccnc2)cc1OC,"inconclusive [inhibitor, full curve]",–
CCC(=O)Nc1nc(C)c(-c2csc(Nc3ccc(S(=O)(=O)Nc4cc(C)on4)cc3)n2)s1,"inconclusive [inhibitor, full curve, poor fit]",–
CCc1cc(CNC(=O)C2CCC(=O)N(CCc3cccc(F)c3)C2)on1 (configuration not stated),–,inactive: -3.03%
NC(=O)CCn1c(C(=O)c2ccc(Cl)cc2)c2ccccc2[n+]1[O-],–,inactive: -10.9%
COc1cccc(/C=N\NC(=O)c2ccc(C)nc2)c1,–,inactive: -4.66%
CC(=O)c1cccc(NC(=O)C2CCCN2S(=O)(=O)c2cccc3cccnc23)c1 (configuration not stated),"inconclusive [inhibitor, partial curve]",–
O=C(O)c1ccc(C[n+]2c(-c3ccccc3)csc2Nc2ccccc2)cc1,–,inactive: -7.59%
Cc1ccc(N2C(=O)C(CC(=O)Nc3cccc(F)c3)N(C3CC3)C2=O)cc1 (configuration not stated),–,inactive: 2.43%
Cc1ccccc1-n1c(SCc2ccc(Cl)cc2)nc2[nH]ncc2c1=O,–,inactive: 6.82%
COc1ccc(NC(=O)NCCN2CCN(c3ccc(C)cc3)CC2)c(Cl)c1,"inconclusive [inhibitor, full curve, poor fit]",–
CC(C)(C)n1ncc2c(=O)n(Cc3ccc(Cl)c(Cl)c3)cnc21,–,inactive: -6.95%
c1ccc(CSCc2nc3ccccc3[nH]2)cc1,–,inactive: -13.2%
Cn1nc(OC(=O)Nc2ccccc2)cc1C(F)(F)F,"inconclusive [inhibitor, single point]",–
COc1ccc(CNC(=O)CC(C)S(=O)(=O)c2ccc3c(c2)NC(=O)CO3)cc1 (configuration not stated),–,inactive: -5.32%
CCOC(=O)c1c(C)[nH]c(C)c1C(=O)CSc1nc2ccccc2c(=O)n1-c1ccc(F)cc1,"inconclusive [inhibitor, full curve, poor fit]",–
CCOC(=O)N1CCC(NC(=O)C(C)n2c3ccccc3c3cnn(C)c(=O)c32)CC1 (configuration not stated),"inconclusive [inhibitor, partial curve, poor fit]",–
Cc1ccc(CCNC(=O)CCCn2nc(C)c3c(C)n(-c4ccccc4)nc3c2=O)cc1,"inconclusive [inhibitor, single point]",–
Cc1nn(CC(=O)Nc2cccc(Cl)c2)c(=O)c2cc(-c3ccccc3)nn12,"inconclusive [inhibitor, single point]",–
COc1ccccc1NS(=O)(=O)c1cccc(C(=O)N/N=C(\C)c2ccc(-n3ccnc3)cc2)c1,"inconclusive [inhibitor, single point]",–
CC(C)C(C)NC(=O)Cn1cnc2c(oc3ccccc32)c1=O (configuration not stated),"inconclusive [inhibitor, full curve, poor fit]",–
O=C(CCC(=O)c1cccs1)NCc1ccccc1,"inconclusive [inhibitor, single point]",–

SMILES,Potency,"activity change, negative = inhibition"
CC1CCN(CCCNC(=O)C2CCC(=O)N2C2CCCC2)CC1 (configuration not stated),"inconclusive [inhibitor, full curve, poor fit]",–
O=C(NC1CCCCCC1)c1cc2n(n1)C(C(F)(F)F)CC(c1ccco1)N2 (configuration not stated),"inconclusive [inhibitor, full curve, poor fit]",–
O=C(NCCCn1cccn1)C1CCC(=O)N(Cc2ccccc2F)C1 (configuration not stated),"inconclusive [inhibitor, full curve, poor fit]",–
CN1CCN(CCCNC(=O)CCCOc2cc(=O)n(C)c3ccccc23)CC1,"inconclusive [inhibitor, full curve, poor fit]",–
C/C(=N/NS(=O)(=O)c1ccc(C)c(C)c1)c1ccncc1,"inconclusive [inhibitor, partial curve, poor fit]",–
N#Cc1c(NC(=O)CCN2C(=O)c3ccccc3C2=O)oc(-c2ccccc2)c1-c1ccccc1,–,inactive: -6.22%
COc1cc(C2/C(=C(\O)c3ccc4c(c3)CC(C)O4)C(=O)C(=O)N2CCN2CCOCC2)cc(OC)c1OC (configuration not stated),"inconclusive [inhibitor, single point]",–
COc1ccc(CC(=O)NCCS(=O)(=O)N2CCN(c3ccccc3)CC2)cc1OC,"inconclusive [inhibitor, full curve]",–
Cc1cc(NC(=O)CSc2nc(=O)n(CCN(C)C)c3c2CCCC3)no1,"inconclusive [inhibitor, full curve, poor fit]",–
COc1ccc(CC(=O)n2nc(-c3cccnc3)nc2N)cc1,"inconclusive [inhibitor, full curve, poor fit]",–
C=CCn1c(C)cc(C(=O)CSc2nnc(-c3cccc(S(=O)(=O)N(CC)CC)c3)o2)c1C,–,inactive: 6.28%
COc1ccc(CCNC(=O)Cn2c(=O)n(-c3ccc(F)cc3)c(=O)c3sccc32)cc1OC,"inconclusive [inhibitor, single point]",–
NS(=O)(=O)c1ccc(CNC(=O)c2cc(S(=O)(=O)N3CCOCC3)c(Cl)cc2Cl)cc1,"inconclusive [inhibitor, single point]",–
CCOC(=O)Cn1c(=O)c2c(nc(Br)n2Cc2ccccc2)n(C)c1=O,"inconclusive [inhibitor, full curve, poor fit]",–
Cc1cc(C)cc(C(=O)N2CCN(Cc3ccc4c(c3)OCO4)CC2)c1,–,inactive: -11.1%
CC(C)OCC1Cn2c(nc3c2c(=O)n(C)c(=O)n3C)O1 (configuration not stated),–,inactive: 1.82%
COc1ccc2ccccc2c1/C=N/NC(=O)c1nnn(-c2nonc2N)c1C(C)C,–,inactive: 4.04%
O=C1CC(NCc2cccs2)C(=O)N1c1ccc(Cl)cc1 (configuration not stated),"inconclusive [inhibitor, full curve]",–
CCCNC(=O)c1cccc(Cn2nc(C)c(Br)c2C)c1,"inconclusive [inhibitor, full curve, poor fit]",–
COc1ccc(-c2csc(Nc3ccc(C)cn3)n2)cc1,"inconclusive [inhibitor, single point]",–
Cc1ccc(-n2c(=O)cc(N3CCN(C(=O)c4ccco4)CC3)[nH]c2=O)cc1,"inconclusive [inhibitor, partial curve]",–
